Results: the supplement of paper PMC10320760
Single values of this set are uncertain.

B1: Ydj1; a variant is named by its letters at X, in order (parent)
chain: MVKETKFYDILGVPVTATDVEIKKAYRKCALKYHPDKNPSEEAAEKFKEASAAYEILSDPEKRDIYDQFGEDGLSGAGGAGGFPGGGFGFGDDIFSQFFGAGGAQRPRGPQRGKDIKHEISASLEELYKGRTAKLALNKQILCKECEGRGGKKGAVKKCTSCNGQGIKFVTRQMGPMIQRFQTECDVCHGTGDIIDPKDRCKSCNGKKVENERKILEVHVEPGMKDGQRIVFKGEADQAPDVIPGDVVFIVSERPHKSFKRDGDDLVYEAEIDLLTAIAGGEFALEHVSGDWLKVGIVPGEVIAPGMRKVIEGKGMPIPKYGGYGNLIIKFTIKFPENHFTSEENLKKLEEILPPRIVPAIPKKATVDECVLADFDPAKYNRTRASRGGANYDSDEEEQGGEGVQCXXX

Variants of: B1
Assay: enrichment factor, frequency at 37 °C / frequency at 25 °C (thermotolerance selection) (ratio); higher = more growth at 37 °C, higher likelihood of farnesylation
Conditions: with Saccharomyces cerevisiae ydj1Δ (yWS304); selective temperature 37 °C; reference temperature 25 °C

Variant | enrichment factor
DSI | 0.137
DSQ | 1.35
DSC | 0.354
DSD | 0.191
DST | 0.211
DSS | 0.166
DSN | 0.203
DSK | 0.189
DSL | 0.191
DSF | 1.29
DSH | 0.988
DSP | 0.213
DSE | 0.115
DSM | 1.22
DSV | 0.223
DSG | 0.143
DSR | 0.128
ESD | 0.207
EST | 1.11
ESL | 1.43
ESI | 1.5
ESK | 0.113
ESF | 1.42
ESV | 1.24

Variant | enrichment factor
ESN | 0.937
ESE | 0.0947
ESQ | 1.52
ESS | 1.27
ESR | 0.199
ESC | 1.78
ESH | 1.32
ESM | 1.35
ESG | 0.467
ESP | 0.156
LSM | 1.69
LSL | 1.58
LSV | 1.62
LSG | 1.57
LSI | 1.28
LSF | 2.17
LSD | 0.381
LSC | 0.112
LSH | 1.58
LSN | 1.27
LSP | 0.2
LSK | 0.134
LST | 1.67
LSQ | 1.32

Variant | enrichment factor
LSR | 0.127
LSE | 0.551
LSS | 1.53
ASH | 2.11
ASS | 2.18
ASF | 2.1
ASE | 0.326
ASV | 1.44
ASQ | 1.61
ASK | 0.106
ASI | 1.62
ASG | 1.24
AST | 1.53
ASM | 1.81
ASN | 1.6
ASD | 0.304
ASR | 0.192
ASL | 1.77
ASP | 0.142
ASC | 0.832
ISH | 1.77
ISP | 0.104
ISS | 1.69
ISM | 1.59

Variant | enrichment factor
ISE | 0.717
ISQ | 1.58
ISD | 0.584
ISG | 1.13
ISL | 1.28
ISK | 0.175
ISF | 1.45
ISN | 1.95
IST | 1.56
ISV | 2.2
ISC | 1.09
ISI | 1.79
ISR | 0.218
YSM | 2.18
YSC | 3.47
YSE | 0.131
YSI | 1.07
YST | 1.41
YSL | 0.623
YSH | 3.34
YSQ | 3.47
YSP | 0.191
YSK | 0.0998
YSS | 2.34

Variant | enrichment factor
YSN | 1.32
YSG | 0.988
YSD | 0.265
YSF | 2.7
YSR | 0.147
FSC | 0.358
FSS | 2.02
FSM | 0.927
FSR | 0.247
FSD | 0.208
FSH | 2.09
FSG | 1.13
FST | 1.62
FSK | 0.0822
FSI | 1.81
FSV | 1.2
FSF | 1.46
FSN | 1.66
FSP | 1.5
FSQ | 2.34
FSE | 0.155
FSL | 1.17
KSP | 0.284
KSV | 1.28

Variant | enrichment factor
KSC | 1.54
KSD | 0.807
KSL | 0.611
KSG | 0.462
KST | 1.54
KSK | 0.195
KSS | 1.76
KSR | 0.361
KSI | 1.08
KSH | 1.38
KSN | 1.72
KSQ | 1.7
KSM | 1.41
KSE | 0.163
KSF | 1.66
WST | 1.6
WSI | 2.06
WSP | 1.64
WSE | 1.62
WSM | 1.71
WSD | 0.333
WSL | 1.87
WSQ | 1.62
WSC | 0.151

Variant | enrichment factor
WSG | 1.15
WSN | 1.39
WSS | 1.73
WSK | 0.489
WSR | 0.45
WSF | 0.742
WSH | 1.57
NSN | 1.08
NSL | 1.55
NSR | 0.197
NSQ | 1.58
NSH | 2.26
NSS | 1.78
NSM | 2.05
NSP | 0.0847
NSI | 2.78
NSF | 1.93
NSD | 0.211
NST | 1.62
NSC | 1.72
NSV | 1.47
NSE | 0.168
NSG | 0.928
NSK | 0.118

Variant | enrichment factor
PSK | 0.137
PSS | 1.83
PSM | 1.54
PSG | 1.02
PSQ | 1.61
PSC | 2.12
PST | 1.87
PSI | 1.71
PSN | 1.81
PSV | 1.4
PSD | 0.203
PSH | 1.76
PSR | 0.139
PSL | 1.51
PSE | 0.203
PSP | 0.127
PSF | 1.21
QSR | 0.151
QSP | 0.104
QSL | 1.77
QSG | 0.991
QSK | 0.15
QSF | 2.48
QSN | 1.58

Variant | enrichment factor
QSD | 0.176
QSQ | 1.73
QSV | 2.11
QST | 2.12
QSI | 1.82
QSE | 0.172
QSS | 1.89
QSM | 2.36
QSC | 2.04
QSH | 1.74
GSC | 1.19
GSK | 0.223
GSI | 0.535
GSH | 1.96
GSD | 0.117
GSQ | 1.55
GSV | 1.29
GSF | 2.12
GSM | 1.57
GSP | 0.128
GSE | 0.306
GSR | 0.207
GSL | 0.213
GSN | 0.342

Variant | enrichment factor
GST | 0.739
GSG | 0.124
GSS | 1.62
CSC | 0.326
CSR | 0.132
CSF | 0.604
CSG | 1.54
CST | 1.39
CSH | 0.908
CSS | 1.44
CSD | 0.255
CSQ | 1.91
CSK | 0.193
CSL | 1.01
CSI | 0.705
CSM | 1.17
CSP | 0.192
CSE | 0.531
CSN | 2.04
MSQ | 1.51
MSH | 1.63
MSN | 1.92
MSL | 1.13
MSF | 0.856

Variant | enrichment factor
MSC | 0.668
MSK | 0.207
MSI | 1.61
MSR | 0.185
MST | 1.88
MSD | 0.171
MSS | 1.52
MSG | 1.51
MSM | 1.77
MSE | 0.132
MSP | 0.163
MSV | 1.66
VSR | 0.157
VSE | 1.25
VSM | 1.45
VSD | 0.881
VSS | 2.04
VSN | 1.49
VSP | 0.0738
VSQ | 1.76
VSG | 1.4
VSI | 2.01
VST | 2.13
VSH | 2.11

Variant | enrichment factor
VSK | 0.4
VSC | 2.35
VSL | 2.56
VSF | 4.63
HSG | 0.727
HST | 1.77
HSC | 2.38
HSV | 2.38
HSQ | 1.69
HSE | 0.203
HSF | 2.13
HSS | 2.51
HSL | 0.54
HSH | 1.93
HSR | 0.105
HSM | 2.38
HSP | 0.161
HSI | 1.43
HSD | 0.247
HSN | 2.27
HSK | 0.228
TSN | 1.69
TSK | 0.233
TSF | 2.16

Variant | enrichment factor
TST | 1.79
TSH | 2.34
TSS | 1.58
TSE | 0.195
TSL | 2.23
TSP | 0.212
TSM | 1.66
TSD | 0.325
TSG | 1.2
TSR | 0.13
TSI | 1.47
TSQ | 1.86
TSC | 0.879
SSL | 1.06
SSI | 2.02
SSS | 1.98
SSK | 0.0613
SSM | 1.52
SST | 2.21
SSP | 0.164
SSN | 1.5
SSF | 1.57
SSD | 0.183
SSH | 1.64

Variant | enrichment factor
SSQ | 1.68
SSC | 1.04
SSE | 0.127
SSR | 0.149
SSG | 1.39
RST | 1.32
RSE | 0.302
RSC | 0.649
RSI | 1.51
RSR | 0.169
RSK | 0.146
RSL | 1.45
RSN | 1.5
RSH | 1.94
RSM | 2.14
RSF | 3.31
RSP | 0.0965
RSQ | 1.78
RSS | 1.73
RSV | 1.52
RSG | 1.12
RSD | 1.04
